In the supplement of paper PMC3334620:
Over roughly 33,000 sequences, “E-score (-0.5 to 0.5)” has its median near -0.013; the highest 2% begin near 0.3. The list shows a part of the results.

Molecular target: T1, Msn1 (UniProt P22148)
T1 sequence: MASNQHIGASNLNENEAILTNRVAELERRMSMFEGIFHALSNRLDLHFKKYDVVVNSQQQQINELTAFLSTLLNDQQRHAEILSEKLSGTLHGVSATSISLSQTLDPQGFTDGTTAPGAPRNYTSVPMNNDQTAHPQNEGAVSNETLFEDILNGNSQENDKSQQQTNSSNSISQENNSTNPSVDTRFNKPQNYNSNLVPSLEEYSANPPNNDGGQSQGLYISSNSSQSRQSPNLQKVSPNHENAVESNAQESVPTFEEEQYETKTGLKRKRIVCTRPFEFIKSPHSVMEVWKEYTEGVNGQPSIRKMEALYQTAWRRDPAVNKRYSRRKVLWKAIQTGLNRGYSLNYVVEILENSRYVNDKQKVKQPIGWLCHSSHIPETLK
Experiment: PBM E-score (8-mer binding enrichment) (E-score (-0.5 to 0.5)); higher = stronger / more preferred TF binding; most listed sequences are background and not binding sites
Conditions: protein concentration: 200 nM; construct: GST-full length
How it was run: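 Each ungapped eight-base word and its reverse complement, pooled, received an E-score from the Universal PBM Analysis Suite. Underlying scans, normalised with masliner, recorded fluorescent anti-GST bound to GST-tagged yeast transcription factors. These were applied at about 100-200 nM to universal all-10-mer Agilent arrays double-stranded by primer extension.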

Going from CATCTAAA to GGGGCAAA, the “PBM E-score” value falls from -0.00101 to -0.0726.

First: GCCGAAGA
Second: AATAGTCC
The “PBM E-score” value of the first is lower: 0.1 for the first, 0.157 for the second.

First: GAACCCCC
Second: CGGACACA
The “PBM E-score” value of the first is lower: -0.334 for the first, 0.371 for the second.

First: ACCGAAGT
Second: GGGAGGAC
The “PBM E-score” value of the first is higher: 0.126 for the first, 0.0967 for the second.

First: CCCTCAGA
Second: ATGCCTCC
The “PBM E-score” value of the first is higher: -0.191 for the first, -0.194 for the second.

First: TTAGAGAA
Second: CACGGACG
The “PBM E-score” value of the first is lower: -0.156 for the first, 0.175 for the second.

Compared with CGCTTGCC, CAATTAAA is higher in “PBM E-score” value: -0.0618 for the first, 0.146 for the second.

Going from CGACGTCA to AGTAAACC, the “PBM E-score” value rises from 0.00949 to 0.0271.

Compared with AGACTATA, AATTTCCT is lower in “PBM E-score” value: 0.0475 for the first, 0.0244 for the second.

First: CAGGATCC
Second: CCTTCAAC
The “PBM E-score” value of the first is higher: -0.128 for the first, -0.16 for the second.

Compared with CCCGTACG, ACGACTGG is lower in “PBM E-score” value: -0.161 for the first, -0.216 for the second.

First: CCTGCCTC
Second: CGGGGCAA
The “PBM E-score” value of the first is lower: -0.0901 for the first, -0.0312 for the second.

First: ATCGTCAT
Second: CACTAACA
The “PBM E-score” value of the first is higher: 0.152 for the first, 0.0318 for the second.

Going from ACACGAAC to CGTTTCAC, the “PBM E-score” value rises from 0.0699 to 0.0878.

Going from GAAGCCTA to AGTTGACG, the “PBM E-score” value rises from -0.0508 to 0.0364.

Going from AGTGAGCC to GATCAAAC, the “PBM E-score” value rises from -0.0358 to 0.056.

Compared with CATCACTC, TCAGCCCA is higher in “PBM E-score” value: -0.283 for the first, -0.213 for the second.

Compared with CTAGAATC, GCTTGGCC is lower in “PBM E-score” value: 0.033 for the first, -0.145 for the second.

Compared with CTGTCACC, CTTTAAAG is lower in “PBM E-score” value: -0.0649 for the first, -0.0967 for the second.

Going from CATGTCAG to ATGTGTGG, the “PBM E-score” value falls from 0.208 to -0.0556.

First: GGCGGTAC
Second: GATGCGCA
The “PBM E-score” value of the first is lower: -0.135 for the first, -0.0138 for the second.

First: TCAGCGCA
Second: CTGGTAAG
The “PBM E-score” value of the first is lower: -0.104 for the first, 0.0824 for the second.

First: ACATATTA
Second: AGGTTTGA
The “PBM E-score” value of the first is higher: 0.351 for the first, -0.176 for the second.

Going from AAGAGGAA to ACTCGTTA, the “PBM E-score” value rises from -0.18 to -0.171.

Going from TCTCTCAA to AGACAACA, the “PBM E-score” value rises from 0.112 to 0.248.

Going from ACAAATAT to GGAGCGTA, the “PBM E-score” value falls from 0.404 to -0.0645.

Compared with ATTAGTCC, AAGACACC is lower in “PBM E-score” value: 0.349 for the first, -0.00494 for the second.

Going from AAACTAAC to AAGCGTTC, the “PBM E-score” value falls from 0.102 to -0.0934.

First: GATTCCCA
Second: AGACATCT
The “PBM E-score” value of the first is lower: -0.0562 for the first, 0.29 for the second.

Compared with AGCATCCT, AGCACCGG is higher in “PBM E-score” value: -0.179 for the first, -0.096 for the second.

Compared with GGTGTAGA, GCCTGGCA is higher in “PBM E-score” value: -0.233 for the first, -0.217 for the second.

Going from AATAAAAT to ATCTCCAC, the “PBM E-score” value falls from 0.278 to -0.0667.

First: ATGCAATA
Second: TCACTTCA
The “PBM E-score” value of the first is higher: 0.0215 for the first, -0.0878 for the second.

Compared with GCAACAAC, CGAAATAA is higher in “PBM E-score” value: 0.0348 for the first, 0.177 for the second.

Going from ACAACCAA to GAGCATAC, the “PBM E-score” value falls from 0.219 to 0.0391.

First: AAAGCTTA
Second: AGTCCCAC
The “PBM E-score” value of the first is higher: 0.121 for the first, 0.0898 for the second.

Going from CGAATTCC to GGATTGAC, the “PBM E-score” value falls from 0.142 to 0.0636.

Compared with CCGCGAAA, CAAAGCTA is higher in “PBM E-score” value: 0.0408 for the first, 0.108 for the second.

Compared with ACGCCAAA, AGCCGTGC is higher in “PBM E-score” value: -0.131 for the first, -0.0809 for the second.

Compared with ACTTAATA, AGAATCGC is lower in “PBM E-score” value: 0.0595 for the first, 0.0421 for the second.

First: CACTATGC
Second: ATGCGGAA
The “PBM E-score” value of the first is lower: -0.0454 for the first, 0.0463 for the second.

Compared with CCACACGG, GTCGTACA is higher in “PBM E-score” value: -0.0693 for the first, 0.274 for the second.

Going from GAGATTTA to CGGCACAG, the “PBM E-score” value falls from -0.0103 to -0.0667.

Compared with AACACTAC, TTCACCAA is lower in “PBM E-score” value: 0.00687 for the first, -0.0507 for the second.

First: GTCCAGGA
Second: GCATTTCC
The “PBM E-score” value of the first is higher: 0.257 for the first, 0.0637 for the second.

Going from AATCACGG to GATCTTCC, the “PBM E-score” value falls from 0.084 to -0.00404.

Compared with AGTATCAC, GACGATAA is higher in “PBM E-score” value: -0.0502 for the first, 0.127 for the second.

Going from AGCGGCAT to AAATTTAT, the “PBM E-score” value rises from 0.175 to 0.207.

Compared with CCGACTAG, CTTAATGA is higher in “PBM E-score” value: -0.166 for the first, 0.0864 for the second.

First: ATCGATGC
Second: CCCGTCAC
The “PBM E-score” value of the first is higher: 0.041 for the first, -0.168 for the second.

Going from ATGAGGAG to AGAAGCCA, the “PBM E-score” value rises from -0.305 to -0.131.

Compared with CCGCAGAG, AACACGAG is higher in “PBM E-score” value: -0.255 for the first, 0.0599 for the second.

Compared with ACACAAAT, AAGCATGG is lower in “PBM E-score” value: 0.197 for the first, -0.177 for the second.

Going from AGCTAACC to ACTGATAT, the “PBM E-score” value rises from -0.22 to 0.0204.

Going from ATTGCATA to ATGATGCA, the “PBM E-score” value rises from 0.115 to 0.136.

First: CGATAACA
Second: CGCTACCC
The “PBM E-score” value of the first is higher: -0.0279 for the first, -0.239 for the second.

First: CAACACTG
Second: CGTTCAGA
The “PBM E-score” value of the first is higher: -0.0259 for the first, -0.137 for the second.

First: CGGCGATA
Second: AGTACAAA
The “PBM E-score” value of the first is lower: 0.0816 for the first, 0.44 for the second.

Compared with AAACTGCC, ACATGTAG is higher in “PBM E-score” value: 0.0429 for the first, 0.244 for the second.

Going from GCCTGGAA to ACACGCGG, the “PBM E-score” value rises from -0.0683 to -0.005.

Compared with GCTACACC, ATATAGCA is higher in “PBM E-score” value: -0.162 for the first, 0.0324 for the second.

First: CAAACCAA
Second: ATCGTTGG
The “PBM E-score” value of the first is higher: 0.254 for the first, 0.114 for the second.

Going from AAGTATCA to ACCTGAGG, the “PBM E-score” value falls from 0.128 to -0.217.

Going from GCGATAGA to AAGATTAC, the “PBM E-score” value rises from -0.0828 to -0.0469.

Going from GATCGGAC to GTTACCCA, the “PBM E-score” value falls from 0.29 to -0.047.

Compared with ATATGCAC, AGGTGGTC is lower in “PBM E-score” value: -0.0123 for the first, -0.244 for the second.

First: ATGAATCA
Second: GACAAGTC
The “PBM E-score” value of the first is lower: 0.0376 for the first, 0.419 for the second.

Compared with ATAACGGG, TTGATAAA is higher in “PBM E-score” value: -0.0346 for the first, 0.128 for the second.

Going from CCGTATCA to CTCTTCCA, the “PBM E-score” value falls from -0.00449 to -0.154.

First: ACATTATA
Second: GCTAATAC
The “PBM E-score” value of the first is higher: 0.15 for the first, 0.00888 for the second.

First: CACGGGGA
Second: ATTACAAG
The “PBM E-score” value of the first is lower: -0.217 for the first, 0.0613 for the second.

First: GTGGCCTA
Second: CCCTTTCA
The “PBM E-score” value of the first is higher: -0.117 for the first, -0.231 for the second.

First: CAGCGAAA
Second: ATTAAGGC
The “PBM E-score” value of the first is lower: 0.0465 for the first, 0.066 for the second.

Going from CACTTTAC to AGGACGCC, the “PBM E-score” value falls from -0.0285 to -0.178.

First: CTAATCAA
Second: CGTCTAAC
The “PBM E-score” value of the first is higher: 0.155 for the first, 0.0502 for the second.

Compared with ATGGGGTG, GGTTACGA is lower in “PBM E-score” value: -0.12 for the first, -0.217 for the second.

Going from AGGTCGAA to GGTCCCAC, the “PBM E-score” value falls from -0.0147 to -0.176.

Going from GGGTGGCA to CGACCCGA, the “PBM E-score” value rises from -0.108 to -0.046.

Going from AAGAATGT to CCAGGCGG, the “PBM E-score” value falls from 0.268 to -0.0927.

Going from AGACGCGC to CCATAAAC, the “PBM E-score” value falls from 0.0536 to -0.0335.

First: GTAAGCGA
Second: CGAGCTCA
The “PBM E-score” value of the first is lower: -0.0511 for the first, -0.0163 for the second.

Compared with CAGGTAAG, AGGCGGTA is lower in “PBM E-score” value: -0.013 for the first, -0.0886 for the second.

Compared with AATAGCGT, GAATGACA is higher in “PBM E-score” value: 0.076 for the first, 0.34 for the second.

Going from TCCGAGAA to CTGCAGGA, the “PBM E-score” value falls from 0.346 to 0.194.

First: CATACACG
Second: GAGTGACC
The “PBM E-score” value of the first is higher: 0.254 for the first, 0.0114 for the second.

Going from GGCAATTA to ACAGTAAA, the “PBM E-score” value rises from -0.149 to -0.00785.
